# The supplement of paper PMC8728848
# Some of the results follow.
# Columns and labels:
# Assay in all cases: glycan array binding signal (z-score within array); higher = stronger binding
# Conditions in all cases: glycan notation: IUPAC condensed, linker removed
# [1] = target: Gal3S(b1-4)GlcNAc
# Procedure, shortened: (§1)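 Arrays were curated from the Consortium for Functional Glycomics database, 3228 in total, and kept only where the protein sequence was available. Binding is expressed as a within-array Z-score. This score was averaged across arrays of the same protein sequence at different concentrations or buffers and across linkers, and negative values can be read as non-binding.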
# [2] = target: Gal3S(b1-4)GlcNAc6S
# Procedure, shortened: as §1
# [3] = target: Gal3S(b1-4)[Fuc(a1-3)]Glc
# Procedure, shortened: as §1
# [4] = target: Gal3S4S(b1-4)GlcNAc
# Procedure, shortened: as §1
# [5] = target: Gal3S6S(b1-4)GlcNAc
# Procedure, shortened: as §1
# [6] = target: Gal3S6S(b1-4)GlcNAc6S
# Procedure, shortened: as §1
# [7] = target: Gal4S(b1-4)GlcNAc
# Procedure, shortened: as §1
# [8] = target: Gal4S6S(b1-4)GlcNAc
# Procedure, shortened: as §1
# [9] = target: Gal6S(b1-4)Glc
# Procedure, shortened: as §1
# [10] = target: Gal6S(b1-4)Glc6S
# Procedure, shortened: as §1
# [11] = target: Gal6S(b1-4)GlcNAc
# Procedure, shortened: as §1
# [12] = target: Gal6S(b1-4)GlcNAc6S
# Procedure, shortened: as §1
# [13] = target: GalNAc(a1-3)Gal
# Procedure, shortened: as §1
# [14] = target: GalNAc(a1-3)GalNAc
# Procedure, shortened: as §1
# [15] = target: GalNAc(b1-3)Gal
# Procedure, shortened: as §1
# [16] = target: GalNAc(b1-3)Gal(a1-4)Gal(b1-4)GlcNAc
# Procedure, shortened: as §1
# [17] = target: GalNAc(b1-3)GalNAc
# Procedure, shortened: as §1
# [18] = target: GalNAc(b1-4)GlcNAc
# Procedure, shortened: as §1
# [19] = target: Glc(a1-4)Glc
# Procedure, shortened: as §1
# [20] = target: Glc(a1-6)Glc(a1-6)Glc
# Procedure, shortened: as §1
# [21] = target: Glc(b1-4)Glc
# Procedure, shortened: as §1
# [22] = target: Glc(b1-6)Glc
# Procedure, shortened: as §1
# [23] = target: GlcA(b1-3)Gal
# Procedure, shortened: as §1
# [24] = target: GlcA(b1-3)GlcNAc
# Procedure, shortened: as §1
# [25] = target: GlcA(b1-6)Gal
# Procedure, shortened: as §1
# [26] = target: GlcNAc(a1-3)Gal(b1-4)GlcNAc
# Procedure, shortened: as §1
# [27] = target: GlcNAc(a1-6)Gal(b1-4)GlcNAc
# Procedure, shortened: as §1
# [28] = target: GlcNAc(b1-2)Gal(b1-3)GalNAc
# Procedure, shortened: as §1
# [29] = target: GlcNAc(b1-2)Man(a1-3)[GlcNAc(b1-2)Man(a1-6)]Man(b1-4)GlcNAc(b1-4)GlcNAc
# Procedure, shortened: as §1
# [30] = target: GlcNAc(b1-3)Gal
# Procedure, shortened: as §1
# [31] = target: GlcNAc(b1-3)Gal(b1-3)GalNAc
# Procedure, shortened: as §1
# [32] = target: GlcNAc(b1-3)Gal(b1-4)Glc
# Procedure, shortened: as §1
# [33] = target: GlcNAc(b1-3)Gal(b1-4)GlcNAc
# Procedure, shortened: as §1
# [34] = target: GlcNAc(b1-3)Gal(b1-4)GlcNAc(b1-3)Gal(b1-4)GlcNAc
# Procedure, shortened: as §1
# [35] = target: GlcNAc(b1-3)GalNAc
# Procedure, shortened: as §1
# [36] = target: GlcNAc(b1-3)Man
# Procedure, shortened: as §1
# [37] = target: GlcNAc(b1-3)[GlcNAc(b1-4)][GlcNAc(b1-6)]GlcNAc
# Procedure, shortened: as §1
# [38] = target: GlcNAc(b1-3)[GlcNAc(b1-6)]Gal(b1-4)GlcNAc
# Procedure, shortened: as §1
# [39] = target: GlcNAc(b1-3)[GlcNAc(b1-6)]GalNAc
# Procedure, shortened: as §1
# [40] = target: GlcNAc(b1-4)Gal(b1-4)GlcNAc
# Procedure, shortened: as §1
# [41] = target: GlcNAc(b1-4)GlcNAc
# Procedure, shortened: as §1
# [42] = target: GlcNAc(b1-4)GlcNAc(b1-4)GlcNAc
# Procedure, shortened: as §1
# [43] = target: GlcNAc(b1-4)GlcNAc(b1-4)GlcNAc(b1-4)GlcNAc(b1-4)GlcNAc
# Procedure, shortened: as §1
# [44] = target: GlcNAc(b1-4)GlcNAc(b1-4)GlcNAc(b1-4)GlcNAc(b1-4)GlcNAc(b1-4)GlcNAc
# Procedure, shortened: as §1
# [45] = target: GlcNAc(b1-4)[GlcNAc(b1-6)]GalNAc
# Procedure, shortened: as §1
binder,measurement,setting,value
GH98CBM (Clostridium perfringens) (protein) EVYALEESRDVYLSDLDWLNATHGDDTKSKIVQKNHPFTPGNNNQSTKISLKMEDGSISEFEKGLGTIAGSPSTITYDISGAGVTKFFSYLGIDRSANPINEQYAKVDKIEVVVDGKVIYSTINQFPNGLTYETPAIKVDLNIPENAKRLQLKSYAGEKTWGDEVVYADAKFTAKGDFVN,glycan array binding signal (z-score),[1],-0.144
same,glycan array binding signal (z-score),[2],-0.143
same,glycan array binding signal (z-score),[3],-0.211
same,glycan array binding signal (z-score),[4],-0.16
same,glycan array binding signal (z-score),[5],0.137
same,glycan array binding signal (z-score),[6],-0.037
same,glycan array binding signal (z-score),[7],-0.22
same,glycan array binding signal (z-score),[8],-0.238
same,glycan array binding signal (z-score),[9],-0.098
same,glycan array binding signal (z-score),[10],-0.289
same,glycan array binding signal (z-score),[11],-0.065
same,glycan array binding signal (z-score),[12],-0.291
same,glycan array binding signal (z-score),[13],-0.092
same,glycan array binding signal (z-score),[14],-0.243
same,glycan array binding signal (z-score),[15],-0.261
same,glycan array binding signal (z-score),[16],-0.306
same,glycan array binding signal (z-score),[17],-0.337
same,glycan array binding signal (z-score),[18],-0.149
same,glycan array binding signal (z-score),[19],-0.221
same,glycan array binding signal (z-score),[20],-0.282
same,glycan array binding signal (z-score),[21],-0.19
same,glycan array binding signal (z-score),[22],-0.092
same,glycan array binding signal (z-score),[23],-0.196
same,glycan array binding signal (z-score),[24],-0.237
same,glycan array binding signal (z-score),[25],0.04
same,glycan array binding signal (z-score),[26],0.016
same,glycan array binding signal (z-score),[27],-0.276
same,glycan array binding signal (z-score),[28],-0.175
same,glycan array binding signal (z-score),[29],-0.097
same,glycan array binding signal (z-score),[30],-0.243
same,glycan array binding signal (z-score),[31],-0.125
same,glycan array binding signal (z-score),[32],-0.254
same,glycan array binding signal (z-score),[33],-0.291
same,glycan array binding signal (z-score),[34],-0.233
same,glycan array binding signal (z-score),[35],-0.269
same,glycan array binding signal (z-score),[36],0.097
same,glycan array binding signal (z-score),[37],-0.241
same,glycan array binding signal (z-score),[38],-0.149
same,glycan array binding signal (z-score),[39],-0.107
same,glycan array binding signal (z-score),[40],-0.126
same,glycan array binding signal (z-score),[41],-0.234
same,glycan array binding signal (z-score),[42],-0.22
same,glycan array binding signal (z-score),[43],0.002
same,glycan array binding signal (z-score),[44],-0.262
same,glycan array binding signal (z-score),[45],-0.218
